The other results are listed elsewhere or left out. Shown are side measurements of this screen, not its main read-out; they come without a call.
Experiments:
Assay in all cases: Primary Screen for Target Class Profiling of Small Molecule Inhibitors of Methyltransferases
[1] = biological target: Glycine N-methyltransferase (Homo sapiens) (UniProt Q14749); details: purified enzyme, MTase-Glo SAH luminescence; measured here: GNMT inhibition; at 40 µM; stronger effect = lower value
Summary of the method: (§1)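 Each enzyme was reacted with SAM and its substrate, with compounds tested once at 40 uM; SAH formed was read by MTase-Glo luminescence.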

[2] = biological target: Guanidinoacetate N-methyltransferase (Homo sapiens) (UniProt Q14353); details: purified enzyme, MTase-Glo SAH luminescence; measured here: GAMT inhibition; at 40 µM; stronger effect = lower value
Summary of the method: as §1

[3] = biological target: Histamine N-methyltransferase (Homo sapiens) (UniProt P50135); details: purified enzyme, MTase-Glo SAH luminescence; measured here: HNMT inhibition; at 40 µM; stronger effect = lower value
Summary of the method: as §1

[4] = biological target: Nicotinamide N-methyltransferase (Homo sapiens) (UniProt P40261); details: purified enzyme, MTase-Glo SAH luminescence; measured here: NNMT inhibition; at 40 µM; stronger effect = lower value
Summary of the method: as §1

[5] = biological target: Phenylethanolamine N-methyltransferase (Homo sapiens) (UniProt P11086); details: purified enzyme, MTase-Glo SAH luminescence; measured here: PNMT inhibition; at 40 µM; stronger effect = lower value
Summary of the method: as §1
% is scaled to controls: 0 for no effect and ±100 for the full control effect.

SMILES	activity change, negative = inhibition [1] [%]	activity change, negative = inhibition [2] [%]	activity change, negative = inhibition [3] [%]	activity change, negative = inhibition [4] [%]	activity change, negative = inhibition [5] [%]
CCCC1c2cccn2CCN1C(=O)NC(C)C (stereo not given)	-7.41	3.39	-12.2	-13.6	-5.91
Cc1ccc(NC(=O)Cn2nc3n(CC(C)C)c(=O)c4ccc(C(=O)NC(C)C)cc4n3c2=O)c(C)c1	-0.202	-2.86	1.08	-0.983	-2.82
COc1ccc(OCc2nc(C)c(CCO)c(=O)n2CC(=O)NC(C)CCc2ccccc2)cc1 (stereo not given)	-0.865	-0.048	-0.196	-3.31	-3.21
CNC(=O)c1cc(C2CC2)nc2c1c(C1CCCN(C(=O)Cc3ccccn3)C1)nn2C (stereo not given)	0.665	-0.973	2.09	-1.37	1.25
Cc1ccc(CCNS(=O)(=O)c2ccc3c(c2)n(C)c(=O)n3C)cc1	-2.14	3.74	-6.78	-12.8	-11.6
CCOC(=O)c1cc2n(n1)CC(C)(C(=O)NC1CCCC1)N(c1cc(Cl)ccc1C)C2=O (stereo not given)	3.46	0.442	-16	-1.04	4.48
Cc1ccc(CCN2C(=O)CSc3c(c4ccccc4n3C)C2C(=O)NCc2ccccc2)cc1 (stereo not given)	0.102	0.037	-0.566	3.78	-0.037
COc1cccc(CN2CC(=O)N(Cc3ccc(F)cc3)c3ccccc3S2(=O)=O)c1	9.21	0	9.72	-2.28	3.22
COc1c2c(c(C)c3c1C(=O)OC3)OC1(C)CC(O)C34OC(OC)(CC(OC(C)=O)C3(C)C1C2)OC4(C)C (stereo not given)	-2.52	2.28	7.36	-12.2	0.659
Cc1ccc(N2CC(C)N(C(=O)c3ccc(-n4cnnn4)cc3)CC2=O)cc1 (stereo not given)	-0.756	0.453	1.22	-0.969	-16.1
CC1(C(=O)NC2CCCCC2)Cn2nc(-c3cccs3)cc2C(=O)N1Cc1cccc(F)c1 (stereo not given)	-8.98	3.46	-2.92	-6.14	-4.79
CC(C)C[C@@H](NC(=O)[C@@H]1C[C@@H](NC(=O)c2cnccn2)CCN1C(=O)COCC(=O)O)C(N)=O	-2.12	1.3	-0.606	-0.713	14.3
CCC(C)NC(=O)CCc1nnc2n(CCc3ccccc3)c(=O)c3ccccc3n12 (stereo not given)	1.2	2.85	2.38	0.552	-2.75
CCCNc1nc2c(-c3cccc(F)c3)nnn2c2ccc(Cl)cc12	-3.98	2.51	1.26	-6.27	-6.23
CC(=O)NCCNc1nc2c(-c3cccc(C)c3)nnn2c2ccc(Cl)cc12	4.54	1.16	8.66	9.62	0.225
O=C(Nc1ccccc1F)C1CN(C2CCCCC2)C(=O)N1 (stereo not given)	-3.23	-2.8	-0.925	-14.4	-6.01
O=C(c1cn[nH]c1-c1ccc(F)cc1)N1CC2CC(C1)[C@H]1CCCC(=O)N1C2 (stereo not given in full)	-3.61	-4.48	-0.109	-3.69	-1.17
